# Data from the supplement of paper PMC8728848.
# The list shows a part of the results.
# B1: Gal 7 (Homo sapiens) (protein)
# chain: MSNVPHKSSLPEGIRPGTVLRIRGLVPPNASRFHVNLLCGEEGGSDAALHFNPRLDTSEVVFNSKEGGSWGREERGPGVPFGRGQPFEVLIIASDDGFKAVVGDAQYHHFRHRLPLARVRLVEVGGDVQLDSVRIF
# Assays:
# Assay in all cases: glycan array binding signal (z-score within array); higher = stronger binding
# Details in all cases: glycan notation: IUPAC condensed, linker removed
# [1] = target: GlcNAc(a1-3)Gal(b1-4)GlcNAc
# Summary of the method: (§1)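 From the Consortium for Functional Glycomics database, 3228 arrays were curated, keeping only those whose protein sequence was available. Binding is given as a within-array Z-score averaged across arrays sharing a protein sequence and across linkers. Negative Z-scores can be read as non-binding.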
# [2] = target: GlcNAc(a1-4)Gal(b1-3)GlcNAc
# Summary of the method: as §1
# [3] = target: GlcNAc(a1-4)Gal(b1-4)GalNAc
# Summary of the method: as §1
# [4] = target: GlcNAc(a1-4)Gal(b1-4)GlcNAc
# Summary of the method: as §1
# [5] = target: GlcNAc(a1-4)Gal(b1-4)GlcNAc(b1-3)Gal(b1-4)Glc
# Summary of the method: as §1
# [6] = target: GlcNAc(a1-4)Gal(b1-4)GlcNAc(b1-3)Gal(b1-4)GlcNAc
# Summary of the method: as §1
# [7] = target: GlcNAc(a1-4)Gal(b1-4)GlcNAc(b1-3)Gal(b1-4)GlcNAc(b1-3)Gal(b1-4)GlcNAc
# Summary of the method: as §1
# [8] = target: GlcNAc(a1-4)Gal(b1-4)GlcNAc(b1-3)Gal(b1-4)[Fuc(a1-3)]GlcNAc(b1-3)Gal(b1-4)[Fuc(a1-3)]GlcNAc
# Summary of the method: as §1
# [9] = target: GlcNAc(a1-6)Gal(b1-4)GlcNAc
# Summary of the method: as §1
# [10] = target: GlcNAc(b1-2)Gal(b1-3)GalNAc
# Summary of the method: as §1
# [11] = target: GlcNAc(b1-2)Gal(b1-3)GlcNAc
# Summary of the method: as §1
# [12] = target: GlcNAc(b1-2)Man(a1-3)[GlcNAc(b1-2)Man(a1-6)]Man(b1-4)GlcNAc(b1-4)GlcNAc
# Summary of the method: as §1
# [13] = target: GlcNAc(b1-2)Man(a1-3)[GlcNAc(b1-2)Man(a1-6)]Man(b1-4)GlcNAc(b1-4)[Fuc(a1-6)]GlcNAc
# Summary of the method: as §1
# [14] = target: GlcNAc(b1-2)Man(a1-3)[GlcNAc(b1-4)][GlcNAc(b1-2)Man(a1-6)]Man(b1-4)GlcNAc(b1-4)GlcNAc
# Summary of the method: as §1
# [15] = target: GlcNAc(b1-2)Man(a1-3)[GlcNAc(b1-4)][GlcNAc(b1-2)Man(a1-6)]Man(b1-4)GlcNAc(b1-4)[Fuc(a1-6)]GlcNAc
# Summary of the method: as §1
# [16] = target: GlcNAc(b1-2)[GlcNAc(b1-4)]Man(a1-3)[GlcNAc(b1-2)Man(a1-6)]Man(b1-4)GlcNAc(b1-4)GlcNAc
# Summary of the method: as §1
# [17] = target: GlcNAc(b1-2)[GlcNAc(b1-4)]Man(a1-3)[GlcNAc(b1-4)][GlcNAc(b1-2)Man(a1-6)]Man(b1-4)GlcNAc(b1-4)GlcNAc
# Summary of the method: as §1
# [18] = target: GlcNAc(b1-2)[GlcNAc(b1-4)]Man(a1-3)[GlcNAc(b1-4)][GlcNAc(b1-2)[GlcNAc(b1-6)]Man(a1-6)]Man(b1-4)GlcNAc(b1-4)GlcNAc
# Summary of the method: as §1
# [19] = target: GlcNAc(b1-2)[GlcNAc(b1-4)]Man(a1-3)[GlcNAc(b1-4)][GlcNAc(b1-2)[GlcNAc(b1-6)]Man(a1-6)]Man(b1-4)GlcNAc(b1-4)[Fuc(a1-6)]GlcNAc
# Summary of the method: as §1
# [20] = target: GlcNAc(b1-2)[GlcNAc(b1-6)]Man(a1-6)[GlcNAc(b1-2)Man(a1-3)]Man(b1-4)GlcNAc(b1-4)GlcNAc
# Summary of the method: as §1
# [21] = target: GlcNAc(b1-2)[GlcNAc(b1-6)]Man(a1-6)[GlcNAc(b1-2)Man(a1-3)]Man(b1-4)GlcNAc(b1-4)[Fuc(a1-6)]GlcNAc
# Summary of the method: as §1
# [22] = target: GlcNAc(b1-2)[GlcNAc(b1-6)]Man(a1-6)[GlcNAc(b1-2)Man(a1-3)][GlcNAc(b1-4)]Man(b1-4)GlcNAc(b1-4)GlcNAc
# Summary of the method: as §1
# [23] = target: GlcNAc(b1-2)[GlcNAc(b1-6)]Man(a1-6)[GlcNAc(b1-4)][GlcNAc(b1-2)Man(a1-3)]Man(b1-4)GlcNAc(b1-4)GlcNAc
# Summary of the method: as §1
# GlcNAc(b1-3)Fuc = target: GlcNAc(b1-3)Fuc
# Summary of the method: as §1
# GlcNAc(b1-3)Gal = target: GlcNAc(b1-3)Gal
# Summary of the method: as §1
# [24] = target: GlcNAc(b1-3)Gal(b1-3)GalNAc
# Summary of the method: as §1
# GlcNAc(b1-3)Gal(b1-4)Glc = target: GlcNAc(b1-3)Gal(b1-4)Glc
# Summary of the method: as §1
# [25] = target: GlcNAc(b1-3)Gal(b1-4)GlcNAc
# Summary of the method: as §1
# [26] = target: GlcNAc(b1-3)Gal(b1-4)GlcNAc(b1-2)Man(a1-3)[GlcNAc(b1-3)Gal(b1-4)GlcNAc(b1-2)Man(a1-6)]Man(b1-4)GlcNAc(b1-4)GlcNAc
# Summary of the method: as §1
# [27] = target: GlcNAc(b1-3)Gal(b1-4)GlcNAc(b1-2)Man(a1-3)[GlcNAc(b1-3)Gal(b1-4)GlcNAc(b1-2)Man(a1-6)]Man(b1-4)GlcNAc(b1-4)[Fuc(a1-6)]GlcNAc
# Summary of the method: as §1
# [28] = target: GlcNAc(b1-3)Gal(b1-4)GlcNAc(b1-2)[GlcNAc(b1-3)Gal(b1-4)GlcNAc(b1-6)]Man(a1-6)[GlcNAc(b1-3)Gal(b1-4)GlcNAc(b1-2)Man(a1-3)]Man(b1-4)GlcNAc(b1-4)GlcNAc
# Summary of the method: as §1
# [29] = target: GlcNAc(b1-3)Gal(b1-4)GlcNAc(b1-3)Gal(b1-4)GlcNAc
# Summary of the method: as §1
# [30] = target: GlcNAc(b1-3)Gal(b1-4)GlcNAc(b1-3)Gal(b1-4)GlcNAc(b1-2)Man(a1-3)[GlcNAc(b1-3)Gal(b1-4)GlcNAc(b1-3)Gal(b1-4)GlcNAc(b1-2)Man(a1-6)]Man(b1-4)GlcNAc(b1-4)GlcNAc
# Summary of the method: as §1
# [31] = target: GlcNAc(b1-3)Gal(b1-4)GlcNAc(b1-3)Gal(b1-4)GlcNAc(b1-2)Man(a1-3)[GlcNAc(b1-3)Gal(b1-4)GlcNAc(b1-3)Gal(b1-4)GlcNAc(b1-2)Man(a1-6)]Man(b1-4)GlcNAc(b1-4)[Fuc(a1-6)]GlcNAc
# Summary of the method: as §1
# [32] = target: GlcNAc(b1-3)Gal(b1-4)GlcNAc(b1-3)Gal(b1-4)GlcNAc(b1-2)[GlcNAc(b1-3)Gal(b1-4)GlcNAc(b1-3)Gal(b1-4)GlcNAc(b1-6)]Man(a1-6)[GlcNAc(b1-3)Gal(b1-4)GlcNAc(b1-3)Gal(b1-4)GlcNAc(b1-2)Man(a1-3)]Man(b1-4)GlcNAc(b1-4)[Fuc(a1-6)]GlcNAc
# Summary of the method: as §1
# [33] = target: GlcNAc(b1-3)Gal(b1-4)GlcNAc(b1-3)Gal(b1-4)GlcNAc(b1-3)Gal(b1-4)GlcNAc(b1-2)Man(a1-3)[GlcNAc(b1-3)Gal(b1-4)GlcNAc(b1-3)Gal(b1-4)GlcNAc(b1-3)Gal(b1-4)GlcNAc(b1-2)Man(a1-6)]Man(b1-4)GlcNAc(b1-4)GlcNAc
# Summary of the method: as §1
# [34] = target: GlcNAc(b1-3)Gal(b1-4)GlcNAc(b1-3)Gal(b1-4)GlcNAc(b1-3)Gal(b1-4)GlcNAc(b1-2)Man(a1-3)[GlcNAc(b1-3)Gal(b1-4)GlcNAc(b1-3)Gal(b1-4)GlcNAc(b1-3)Gal(b1-4)GlcNAc(b1-2)Man(a1-6)]Man(b1-4)GlcNAc(b1-4)[Fuc(a1-6)]GlcNAc
# Summary of the method: as §1
# [35] = target: GlcNAc(b1-3)Gal(b1-4)GlcNAc(b1-3)Gal(b1-4)GlcNAc(b1-3)Gal(b1-4)GlcNAc(b1-2)[GlcNAc(b1-3)Gal(b1-4)GlcNAc(b1-3)Gal(b1-4)GlcNAc(b1-3)Gal(b1-4)GlcNAc(b1-6)]Man(a1-6)[GlcNAc(b1-3)Gal(b1-4)GlcNAc(b1-3)Gal(b1-4)GlcNAc(b1-3)Gal(b1-4)GlcNAc(b1-2)Man(a1-3)]Man(b1-4)GlcNAc(b1-4)[Fuc(a1-6)]GlcNAc
# Summary of the method: as §1
# [36] = target: GlcNAc(b1-3)Gal(b1-4)GlcNAc(b1-3)Gal(b1-4)GlcNAc(b1-3)Gal(b1-4)GlcNAc(b1-3)Gal(b1-4)GlcNAc(b1-2)Man(a1-3)[GlcNAc(b1-3)Gal(b1-4)GlcNAc(b1-3)Gal(b1-4)GlcNAc(b1-3)Gal(b1-4)GlcNAc(b1-3)Gal(b1-4)GlcNAc(b1-2)Man(a1-6)]Man(b1-4)GlcNAc(b1-4)GlcNAc
# Summary of the method: as §1
# [37] = target: GlcNAc(b1-3)Gal(b1-4)GlcNAc(b1-3)Gal(b1-4)GlcNAc(b1-3)Gal(b1-4)GlcNAc(b1-3)Gal(b1-4)GlcNAc(b1-2)Man(a1-3)[GlcNAc(b1-3)Gal(b1-4)GlcNAc(b1-3)Gal(b1-4)GlcNAc(b1-3)Gal(b1-4)GlcNAc(b1-3)Gal(b1-4)GlcNAc(b1-2)Man(a1-6)]Man(b1-4)GlcNAc(b1-4)[Fuc(a1-6)]GlcNAc
# Summary of the method: as §1
# [38] = target: GlcNAc(b1-3)Gal(b1-4)GlcNAc(b1-3)Gal(b1-4)GlcNAc(b1-3)Gal(b1-4)GlcNAc(b1-3)Gal(b1-4)GlcNAc(b1-2)[GlcNAc(b1-3)Gal(b1-4)GlcNAc(b1-3)Gal(b1-4)GlcNAc(b1-3)Gal(b1-4)GlcNAc(b1-3)Gal(b1-4)GlcNAc(b1-6)]Man(a1-6)[GlcNAc(b1-3)Gal(b1-4)GlcNAc(b1-3)Gal(b1-4)GlcNAc(b1-3)Gal(b1-4)GlcNAc(b1-3)Gal(b1-4)GlcNAc(b1-2)Man(a1-3)]Man(b1-4)GlcNAc(b1-4)[Fuc(a1-6)]GlcNAc
# Summary of the method: as §1
# [39] = target: GlcNAc(b1-3)Gal(b1-4)GlcNAc(b1-3)Gal(b1-4)GlcNAc(b1-3)GalNAc
# Summary of the method: as §1
# [40] = target: GlcNAc(b1-3)Gal(b1-4)GlcNAc(b1-3)GalNAc
# Summary of the method: as §1
# [41] = target: GlcNAc(b1-3)Gal(b1-4)GlcNAc(b1-3)[GlcNAc(b1-3)Gal(b1-4)GlcNAc(b1-3)]GalNAc
# Summary of the method: as §1
# [42] = target: GlcNAc(b1-3)Gal(b1-4)GlcNAc(b1-6)[Gal(b1-3)]GalNAc
# Summary of the method: as §1
binder,measurement,setting,value
B1,glycan array binding signal (z-score),[1],-0.362
same,glycan array binding signal (z-score),[2],-0.285
same,glycan array binding signal (z-score),[3],0.304
same,glycan array binding signal (z-score),[4],-0.085
same,glycan array binding signal (z-score),[5],-0.052
same,glycan array binding signal (z-score),[6],0.029
same,glycan array binding signal (z-score),[7],0.598
same,glycan array binding signal (z-score),[8],0.512
same,glycan array binding signal (z-score),[9],-0.337
same,glycan array binding signal (z-score),[10],-0.329
same,glycan array binding signal (z-score),[11],-0.382
same,glycan array binding signal (z-score),[12],-0.324
same,glycan array binding signal (z-score),[13],-0.155
same,glycan array binding signal (z-score),[14],-0.159
same,glycan array binding signal (z-score),[15],-0.253
same,glycan array binding signal (z-score),[16],-0.236
same,glycan array binding signal (z-score),[17],-0.311
same,glycan array binding signal (z-score),[18],-0.33
same,glycan array binding signal (z-score),[19],-0.347
same,glycan array binding signal (z-score),[20],-0.2
same,glycan array binding signal (z-score),[21],0.103
same,glycan array binding signal (z-score),[22],-0.365
same,glycan array binding signal (z-score),[23],-0.288
same,glycan array binding signal (z-score),GlcNAc(b1-3)Fuc,-0.128
same,glycan array binding signal (z-score),GlcNAc(b1-3)Gal,-0.336
same,glycan array binding signal (z-score),[24],-0.252
same,glycan array binding signal (z-score),GlcNAc(b1-3)Gal(b1-4)Glc,-0.35
same,glycan array binding signal (z-score),[25],-0.352
same,glycan array binding signal (z-score),[26],-0.049
same,glycan array binding signal (z-score),[27],-0.05
same,glycan array binding signal (z-score),[28],0.012
same,glycan array binding signal (z-score),[29],0.373
same,glycan array binding signal (z-score),[30],3.98
same,glycan array binding signal (z-score),[31],1.88
same,glycan array binding signal (z-score),[32],3.85
same,glycan array binding signal (z-score),[33],4.92
same,glycan array binding signal (z-score),[34],4.84
same,glycan array binding signal (z-score),[35],5.04
same,glycan array binding signal (z-score),[36],4.83
same,glycan array binding signal (z-score),[37],4.94
same,glycan array binding signal (z-score),[38],5.06
same,glycan array binding signal (z-score),[39],0.55
same,glycan array binding signal (z-score),[40],-0.125
same,glycan array binding signal (z-score),[41],0.244
same,glycan array binding signal (z-score),[42],-0.272
